The values that follow come from publication PMC9911399, “Two distinct binding modes provide the RNA-binding protein RbFox with extraordinary sequence specificity”.

Substitutions are numbered along the chain they refer to; changes in the protein carry UniProt numbers. The list shows a part of the results.

The labels stand for the following.
B1: GUUUUAC (DNA:RNA)
RNA: GGGAGACCGGAAUUCAGAUUGUCCGUUUUACUUAAAUCCCGUCGUAGCCACCA
DNA 1: CAATCTGAATTCCGGTCTCCC
DNA 2: TGGTGGCTACGACGGGATT
B2: UACAUUG (DNA:RNA)
RNA: B1 RNA with G25U, U26A, U27C, U28A, A30U, C31G
DNA 1: CAATCTGAATTCCGGTCTCCC
DNA 2: TGGTGGCTACGACGGGATT
B3: AAAAUUG (DNA:RNA)
RNA: B1 RNA with G25A, U26A, U27A, U28A, A30U, C31G
DNA 1: CAATCTGAATTCCGGTCTCCC
DNA 2: TGGTGGCTACGACGGGATT
B4: AUUCUUU (DNA:RNA)
RNA: B1 RNA with G25A, U28C, A30U, C31U
DNA 1: CAATCTGAATTCCGGTCTCCC
DNA 2: TGGTGGCTACGACGGGATT
B5: GCAUCAG (DNA:RNA)
RNA: B1 RNA with U26C, U27A, U29C, C31G
DNA 1: CAATCTGAATTCCGGTCTCCC
DNA 2: TGGTGGCTACGACGGGATT
B6: CAUCACU (DNA:RNA)
RNA: B1 RNA with G25C, U26A, U28C, U29A, A30C, C31U
DNA 1: CAATCTGAATTCCGGTCTCCC
DNA 2: TGGTGGCTACGACGGGATT
B7: GAUUCUA (DNA:RNA)
RNA: B1 RNA with U26A, U29C, A30U, C31A
DNA 1: CAATCTGAATTCCGGTCTCCC
DNA 2: TGGTGGCTACGACGGGATT
B8: UAGGUGA (DNA:RNA)
RNA: B1 RNA with G25U, U26A, U27G, U28G, A30G, C31A
DNA 1: CAATCTGAATTCCGGTCTCCC
DNA 2: TGGTGGCTACGACGGGATT
B9: UGCUUGG (DNA:RNA)
RNA: B1 RNA with G25U, U26G, U27C, A30G, C31G
DNA 1: CAATCTGAATTCCGGTCTCCC
DNA 2: TGGTGGCTACGACGGGATT
B10: GCUCAAA (DNA:RNA)
RNA: B1 RNA with U26C, U28C, U29A, C31A
DNA 1: CAATCTGAATTCCGGTCTCCC
DNA 2: TGGTGGCTACGACGGGATT
B11: GGCAUUG (DNA:RNA)
RNA: B1 RNA with U26G, U27C, U28A, A30U, C31G
DNA 1: CAATCTGAATTCCGGTCTCCC
DNA 2: TGGTGGCTACGACGGGATT
B12: UCGGUGG (DNA:RNA)
RNA: B1 RNA with G25U, U26C, U27G, U28G, A30G, C31G
DNA 1: CAATCTGAATTCCGGTCTCCC
DNA 2: TGGTGGCTACGACGGGATT
B13: AUGGUAG (DNA:RNA)
RNA: B1 RNA with G25A, U27G, U28G, C31G
DNA 1: CAATCTGAATTCCGGTCTCCC
DNA 2: TGGTGGCTACGACGGGATT
B14: CCAGUGG (DNA:RNA)
RNA: B1 RNA with G25C, U26C, U27A, U28G, A30G, C31G
DNA 1: CAATCTGAATTCCGGTCTCCC
DNA 2: TGGTGGCTACGACGGGATT
B15: GUGCAAU (DNA:RNA)
RNA: B1 RNA with U27G, U28C, U29A, C31U
DNA 1: CAATCTGAATTCCGGTCTCCC
DNA 2: TGGTGGCTACGACGGGATT
B16: UGUUCGC (DNA:RNA)
RNA: B1 RNA with G25U, U26G, U29C, A30G
DNA 1: CAATCTGAATTCCGGTCTCCC
DNA 2: TGGTGGCTACGACGGGATT
B17: UAGUUGU (DNA:RNA)
RNA: B1 RNA with G25U, U26A, U27G, A30G, C31U
DNA 1: CAATCTGAATTCCGGTCTCCC
DNA 2: TGGTGGCTACGACGGGATT
B18: AGACCUA (DNA:RNA)
RNA: GGGAGACCGGAAUUCAGAUUGUCCAGACCUAUUAAAUCCCGUCGUAGCCACCA
DNA 1: CAATCTGAATTCCGGTCTCCC
DNA 2: TGGTGGCTACGACGGGATT
B19: CCGAACC (DNA:RNA)
RNA: B1 RNA with G25C, U26C, U27G, U28A, U29A, A30C
DNA 1: CAATCTGAATTCCGGTCTCCC
DNA 2: TGGTGGCTACGACGGGATT
B20: GUGGAAG (DNA:RNA)
RNA: B1 RNA with U27G, U28G, U29A, C31G
DNA 1: CAATCTGAATTCCGGTCTCCC
DNA 2: TGGTGGCTACGACGGGATT
B21: GAACUGA (DNA:RNA)
RNA: B18 RNA with A25G, G26A, C29U, U30G
DNA 1: CAATCTGAATTCCGGTCTCCC
DNA 2: TGGTGGCTACGACGGGATT
B22: UAUUAUU (DNA:RNA)
RNA: B1 RNA with G25U, U26A, U29A, A30U, C31U
DNA 1: CAATCTGAATTCCGGTCTCCC
DNA 2: TGGTGGCTACGACGGGATT
B23: AAUUCAC (DNA:RNA)
RNA: B1 RNA with G25A, U26A, U29C
DNA 1: CAATCTGAATTCCGGTCTCCC
DNA 2: TGGTGGCTACGACGGGATT
B24: GGGCCGG (DNA:RNA)
RNA: B18 RNA with A25G, A27G, U30G, A31G
DNA 1: CAATCTGAATTCCGGTCTCCC
DNA 2: TGGTGGCTACGACGGGATT
B25: CAUCGAA (DNA:RNA)
RNA: B18 RNA with A25C, G26A, A27U, C29G, U30A
DNA 1: CAATCTGAATTCCGGTCTCCC
DNA 2: TGGTGGCTACGACGGGATT
B26: AAAUCGC (DNA:RNA)
RNA: B18 RNA with G26A, C28U, U30G, A31C
DNA 1: CAATCTGAATTCCGGTCTCCC
DNA 2: TGGTGGCTACGACGGGATT
B27: UGCGCUA (DNA:RNA)
RNA: B18 RNA with A25U, A27C, C28G
DNA 1: CAATCTGAATTCCGGTCTCCC
DNA 2: TGGTGGCTACGACGGGATT
B28: GACCCGU (DNA:RNA)
RNA: B18 RNA with A25G, G26A, A27C, U30G, A31U
DNA 1: CAATCTGAATTCCGGTCTCCC
DNA 2: TGGTGGCTACGACGGGATT
B29: UGUUUUU (DNA:RNA)
RNA: B1 RNA with G25U, U26G, A30U, C31U
DNA 1: CAATCTGAATTCCGGTCTCCC
DNA 2: TGGTGGCTACGACGGGATT
B30: CCCGAAU (DNA:RNA)
RNA: B1 RNA with G25C, U26C, U27C, U28G, U29A, C31U
DNA 1: CAATCTGAATTCCGGTCTCCC
DNA 2: TGGTGGCTACGACGGGATT
B31: AGCUCGA (DNA:RNA)
RNA: B18 RNA with A27C, C28U, U30G
DNA 1: CAATCTGAATTCCGGTCTCCC
DNA 2: TGGTGGCTACGACGGGATT

This experiment has as its target T1, RBFOX1 RRM (Homo sapiens, UniProt Q9NWB1 109-208).
T1 sequence: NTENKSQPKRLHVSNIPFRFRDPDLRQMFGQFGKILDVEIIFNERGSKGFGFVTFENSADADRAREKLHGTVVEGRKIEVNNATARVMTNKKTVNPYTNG
Briefly: EMSA; HiTS-Eq, 1 nM pool, 10 min; buffer printed only for the single-RNA assays: 10 mM Tris pH 7.5, 150 mM NaCl, 3.4 mM EDTA, 0.001% NP-40, 30 C. The note with it: tags: His6 N-terminal (pET28a); label: 5' 32P. Put shortly: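 A pool of RNA with 7 randomized nucleotides, 5′-radiolabelled and with DNA-annealed flanks, was equilibrated at 1 nM for 10 min in 50 µL with purified RbFox RRM, wild type or mutant, across increasing protein concentrations. Free RNA was separated by 8% native PAGE, excised, reverse-transcribed, barcoded by PCR and sequenced. Relative association constants were obtained from read-count changes of each RNA species versus the control reaction and normalised to the cognate motif.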
Background: A gel shift assay detects complexes by their altered migration in electrophoresis.
For B1, the binding signal was 0.0106 KA relative to UGCAUGU.

For the molecule B2, the binding signal is 0.0129 KA relative to UGCAUGU.

As to B3, the binding signal was 0.00682 KA relative to UGCAUGU. For B4, the binding signal is 0.00634 KA relative to UGCAUGU. As for B5, the binding signal was 0.0121 KA relative to UGCAUGU. As to B6, the binding signal was 0.000687 KA relative to UGCAUGU. Consider B7, for which the binding signal is 0.0118 KA relative to UGCAUGU. As for B8, the binding signal is 0.011 KA relative to UGCAUGU.

Consider B9, for which the binding signal was 0.0481 KA relative to UGCAUGU.

As for B10, the binding signal was 0.00443 KA relative to UGCAUGU. Regarding B11, the binding signal is 0.0108 KA relative to UGCAUGU. Consider B12, for which the binding signal is 0.0215 KA relative to UGCAUGU. For the molecule B13, the binding signal was 0.0107 KA relative to UGCAUGU.

As to B14, the binding signal was 0.00601 KA relative to UGCAUGU. In the case of B15, the binding signal is 0.0149 KA relative to UGCAUGU. With B16, the binding signal was 0.0256 KA relative to UGCAUGU. Under B17 stands 0.0157 KA relative to UGCAUGU.

B18: the binding signal is 0.00181 KA relative to UGCAUGU. Consider B19, for which the binding signal is 0.00978 KA relative to UGCAUGU. In the case of B20, the binding signal is 0.0171 KA relative to UGCAUGU. Consider B21, for which the binding signal is 0.0167 KA relative to UGCAUGU. For the molecule B22, the binding signal was 0.00349 KA relative to UGCAUGU. Turning to B23, the binding signal is 0.00145 KA relative to UGCAUGU. Turning to B24, the binding signal is 0.0124 KA relative to UGCAUGU. Under B25 stands 0.00449 KA relative to UGCAUGU; under B26, 0.00101 KA relative to UGCAUGU. Regarding B27, the binding signal is 0.0155 KA relative to UGCAUGU. With B28, the binding signal was 0.00715 KA relative to UGCAUGU. Turning to B29, the binding signal is 0.0221 KA relative to UGCAUGU. As to B30, the binding signal is 0.0141 KA relative to UGCAUGU. Under B31 stands 0.0166 KA relative to UGCAUGU.
